In the supplement of paper PMC8728848:
The other results are listed elsewhere or left out.

Assays:
Experiment in all cases: glycan array binding signal (z-score within array); higher = stronger binding
Conditions in all cases: glycan notation: IUPAC condensed, linker removed
[1] = biological target: GlcNAc(b1-3)Man
How it was run: (§1)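 Negative Z-scores can be read as non-binding. The Z-score is calculated within each array and then averaged across arrays of one protein sequence at different concentrations or buffers and across linkers. Arrays, 3228 in all, were curated from the Consortium for Functional Glycomics database and kept only where the protein sequence was available.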

[2] = biological target: GlcNAc(b1-3)[GlcNAc(b1-4)][GlcNAc(b1-6)]GlcNAc
How it was run: as §1

[3] = biological target: GlcNAc(b1-3)[GlcNAc(b1-6)]Gal(b1-4)GlcNAc
How it was run: as §1

[4] = biological target: GlcNAc(b1-3)[GlcNAc(b1-6)]GalNAc
How it was run: as §1

[5] = biological target: GlcNAc(b1-3)[GlcNAc(b1-6)]GlcNAc(b1-4)GlcNAc
How it was run: as §1

[6] = biological target: GlcNAc(b1-4)Gal(b1-4)GlcNAc
How it was run: as §1

[7] = biological target: GlcNAc(b1-4)GlcNAc
How it was run: as §1

[8] = biological target: GlcNAc(b1-4)GlcNAc(b1-4)GlcNAc
How it was run: as §1

[9] = biological target: GlcNAc(b1-4)GlcNAc(b1-4)GlcNAc(b1-4)GlcNAc(b1-4)GlcNAc
How it was run: as §1

[10] = biological target: GlcNAc(b1-4)GlcNAc(b1-4)GlcNAc(b1-4)GlcNAc(b1-4)GlcNAc(b1-4)GlcNAc
How it was run: as §1

[11] = biological target: GlcNAc(b1-4)[GlcNAc(b1-6)]GalNAc
How it was run: as §1

[12] = biological target: GlcNAc(b1-6)Gal(b1-4)GlcNAc
How it was run: as §1

[13] = biological target: GlcNAc(b1-6)GalNAc
How it was run: as §1

[14] = biological target: GlcNAc6S(b1-3)Gal(b1-4)GlcNAc
How it was run: as §1

[15] = biological target: Kdn(a2-3)Gal(b1-3)GalNAc
How it was run: as §1

[16] = biological target: Kdn(a2-3)Gal(b1-3)GlcNAc
How it was run: as §1

[17] = biological target: Kdn(a2-3)Gal(b1-4)Glc
How it was run: as §1

[18] = biological target: Kdn(a2-3)Gal(b1-4)GlcNAc
How it was run: as §1

[19] = biological target: Kdn(a2-3)Gal(b1-4)[Fuc(a1-3)]GlcNAc
How it was run: as §1

[20] = biological target: Kdn(a2-6)Gal(b1-4)GlcNAc
How it was run: as §1

[21] = biological target: Man(a1-2)Man(a1-2)Man(a1-3)Man
How it was run: as §1

[22] = biological target: Man(a1-2)Man(a1-2)Man(a1-6)[Man(a1-3)]Man
How it was run: as §1

[23] = biological target: Man(a1-2)Man(a1-3)Man
How it was run: as §1

[24] = biological target: Man(a1-2)Man(a1-3)[Man(a1-2)Man(a1-6)]Man
How it was run: as §1

[25] = biological target: Man(a1-2)Man(a1-3)[Man(a1-2)Man(a1-6)]Man(a1-6)[Man(a1-2)Man(a1-2)Man(a1-3)]Man
How it was run: as §1

[26] = biological target: Man(a1-2)Man(a1-3)[Man(a1-2)Man(a1-6)]Man(a1-6)[Man(a1-2)Man(a1-2)Man(a1-3)]Man(b1-4)GlcNAc(b1-4)GlcNAc
How it was run: as §1

[27] = biological target: Man(a1-2)Man(a1-3)[Man(a1-6)]Man(a1-6)[Man(a1-2)Man(a1-3)]Man(b1-4)GlcNAc(b1-4)GlcNAc
How it was run: as §1

[28] = biological target: Man(a1-2)Man(a1-6)[Man(a1-3)]Man(a1-6)[Man(a1-2)Man(a1-2)Man(a1-3)]Man
How it was run: as §1

[29] = biological target: Man(a1-2)Man(a1-6)[Man(a1-3)]Man(a1-6)[Man(a1-2)Man(a1-2)Man(a1-3)]Man(b1-4)GlcNAc(b1-4)GlcNAc
How it was run: as §1

[30] = biological target: Man(a1-3)[Man(a1-6)]Man
How it was run: as §1

[31] = biological target: Man(a1-3)[Man(a1-6)]Man(a1-6)[Man(a1-2)Man(a1-3)]Man(b1-4)GlcNAc(b1-4)GlcNAc
How it was run: as §1

[32] = biological target: Man(a1-3)[Man(a1-6)]Man(a1-6)[Man(a1-3)]Man
How it was run: as §1

[33] = biological target: Man(a1-3)[Man(a1-6)]Man(a1-6)[Man(a1-3)]Man(b1-4)GlcNAc(b1-4)GlcNAc
How it was run: as §1

[34] = biological target: Man(a1-3)[Man(a1-6)]Man(b1-4)GlcNAc(b1-4)GlcNAc
How it was run: as §1

[35] = biological target: Man(a1-3)[Man(a1-6)]Man(b1-4)GlcNAc(b1-4)[Fuc(a1-6)]GlcNAc
How it was run: as §1

[36] = biological target: Man(a1-6)Man
How it was run: as §1

[37] = biological target: Man(b1-4)GlcNAc
How it was run: as §1

[38] = biological target: MurNAc(b1-4)GlcNAc
How it was run: as §1

[39] = biological target: Neu5Ac(a2-3)Gal
How it was run: as §1

[40] = biological target: Neu5Ac(a2-3)Gal(b1-3)GalNAc
How it was run: as §1

[41] = biological target: Neu5Ac(a2-3)Gal(b1-3)GalNAc(b1-3)Gal(a1-4)Gal(b1-4)Glc
How it was run: as §1

[42] = biological target: Neu5Ac(a2-3)Gal(b1-3)GalNAc(b1-3)Gal(b1-4)GlcNAc
How it was run: as §1

[43] = biological target: Neu5Ac(a2-3)Gal(b1-3)GalNAc(b1-4)[Neu5Ac(a2-3)]Gal(b1-4)Glc
How it was run: as §1

[44] = biological target: Neu5Ac(a2-3)Gal(b1-3)GalNAc(b1-4)[Neu5Ac(a2-8)Neu5Ac(a2-3)]Gal(b1-4)Glc
How it was run: as §1

[45] = biological target: Neu5Ac(a2-3)Gal(b1-3)GalNAc6S
How it was run: as §1

B1: ECA (Erythrina cristagalli), P83410 (protein)
chain: VETISFSFSEFEPGNDNLTLQGAALITQSGVLQLTKINQNGMPAWDSTGRTLYTKPVHMWDSTTGTVASFETRFSFSIEQPYTRPLPADGLVFFMGPTKSKPAQGYGYLGVFNNSKQDNSYQTLAVEFDTFSNPWDPPQVPHIGIDVNSIRSIKTQPFQLDNGQVANVVIKYDAPSKILHVVLVYPSSGAIYTIAEIVDVKQVLPDWVDVGLSGATGAQRDAAETHDVYSWSFQASLPE
With B1 as the binder, how does the “glycan array binding signal (z-score)” value [1] read?
Its value is -0.061.

What about the “glycan array binding signal (z-score)” value [2] of the same binder?
The value was -0.249.

And the “glycan array binding signal (z-score)” value [3]?
Its value is -0.297.

What about the “glycan array binding signal (z-score)” value [4] of the same binder?
The value was -0.244.

And the “glycan array binding signal (z-score)” value [5]?
The value was -0.277.

What about the “glycan array binding signal (z-score)” value [6] of the same binder?
Its value is -0.336.

What about the “glycan array binding signal (z-score)” value [7] of the same binder?
Its value is -0.307.

And the “glycan array binding signal (z-score)” value [8]?
Its value is -0.262.

And the “glycan array binding signal (z-score)” value [9]?
Its value is -0.356.

What about the “glycan array binding signal (z-score)” value [10] of the same binder?
Its value is -0.31.

And the “glycan array binding signal (z-score)” value [11]?
The value was -0.228.

And the “glycan array binding signal (z-score)” value [12]?
The value was -0.283.

And the “glycan array binding signal (z-score)” value [13]?
Its value is -0.317.

And the “glycan array binding signal (z-score)” value [14]?
The value was -0.243.

What about the “glycan array binding signal (z-score)” value [15] of the same binder?
The value was -0.084.

What about the “glycan array binding signal (z-score)” value [16] of the same binder?
The value was -0.278.

What about the “glycan array binding signal (z-score)” value [17] of the same binder?
Its value is -0.348.

What about the “glycan array binding signal (z-score)” value [18] of the same binder?
Its value is -0.25.

What about the “glycan array binding signal (z-score)” value [19] of the same binder?
Its value is -0.341.

What about the “glycan array binding signal (z-score)” value [20] of the same binder?
The value was -0.153.

And the “glycan array binding signal (z-score)” value [21]?
Its value is -0.285.

What about the “glycan array binding signal (z-score)” value [22] of the same binder?
Its value is -0.248.

And the “glycan array binding signal (z-score)” value [23]?
The value was -0.285.

What about the “glycan array binding signal (z-score)” value [24] of the same binder?
The value was -0.318.

And the “glycan array binding signal (z-score)” value [25]?
The value was -0.091.

What about the “glycan array binding signal (z-score)” value [26] of the same binder?
Its value is 0.038.

What about the “glycan array binding signal (z-score)” value [27] of the same binder?
Its value is -0.277.

And the “glycan array binding signal (z-score)” value [28]?
The value was -0.187.

What about the “glycan array binding signal (z-score)” value [29] of the same binder?
Its value is -0.417.

And the “glycan array binding signal (z-score)” value [30]?
The value was -0.174.

And the “glycan array binding signal (z-score)” value [31]?
Its value is 1.29.

What about the “glycan array binding signal (z-score)” value [32] of the same binder?
Its value is -0.255.

And the “glycan array binding signal (z-score)” value [33]?
Its value is -0.177.

What about the “glycan array binding signal (z-score)” value [34] of the same binder?
The value was -0.023.

What about the “glycan array binding signal (z-score)” value [35] of the same binder?
Its value is -0.252.

And the “glycan array binding signal (z-score)” value [36]?
Its value is -0.065.

And the “glycan array binding signal (z-score)” value [37]?
Its value is -0.235.

What about the “glycan array binding signal (z-score)” value [38] of the same binder?
Its value is -0.139.

And the “glycan array binding signal (z-score)” value [39]?
The value was -0.256.

And the “glycan array binding signal (z-score)” value [40]?
Its value is -0.433.

And the “glycan array binding signal (z-score)” value [41]?
The value was -0.038.

What about the “glycan array binding signal (z-score)” value [42] of the same binder?
The value was -0.286.

And the “glycan array binding signal (z-score)” value [43]?
The value was -0.342.

What about the “glycan array binding signal (z-score)” value [44] of the same binder?
The value was -0.401.

And the “glycan array binding signal (z-score)” value [45]?
Its value is -0.291.
